This passage reports cell count results from the supplement of paper PMC4604168 (melanoma cell lines).

Structures are written as SMILES. The list shows a part of the results. Single values are uncertain, as repeats are few or missing.
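Also: cells treated in 1,536-well plates, then fixed and DAPI-stained, with nuclei counted from automated high-throughput microscope images.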

The first assay relates to A375. Briefly: cell count relative to DMSO control; melanoma cells; higher = more viable cells. The settings on record: library dose: standard library concentration; 72 h; first compound 2 µM.
As to `C[C@@H](N)c1ccc(C(=O)Nc2ccnc3[nH]ccc23)cc1` + COc1ccc(Cl)c(Nc2nc3ccccc3nc2NS(=O)(=O)c2cccc(NC(=O)C(C)(C)N)c2)c1 [XL147] (partner dose 4 µM), the cell count was 90.4%.

On to `CCCCCCCCCCCCCCCCCCOP(=O)([O-])OC1CC[N+](C)(C)CC1` [Perifosine] + C=CCn1c(=O)c2cnc(Nc3ccc(N4CCN(C)CC4)cc3)nc2n1-c1cccc(C(C)(C)O)n1 [MK1775] (partner dose 0.1 µM), for which the cell count worked out at 47.5%.

Regarding `CCCCCCCCCCCCCCCCCCOP(=O)([O-])OC1CC[N+](C)(C)CC1` [Perifosine] + CN1CCN(c2ccc3nc(-c4c(N)c5c(F)cccc5[nH]c4=O)[nH]c3c2)CC1 [Dovitinib] (partner dose 0.5 µM), the cell count stood at 57.2%.

Compound `Cn1sc(=O)n(Cc2ccccc2)c1=O` + CN(NC(=O)CC(=O)NN(C)C(=S)c1ccccc1)C(=S)c1ccccc1 [STA4783] (partner dose 0.03 µM) had a cell count of 129%.

In turn, `Cn1sc(=O)n(Cc2ccccc2)c1=O` + CO[C@@H]1[C@H](N(C)C(=O)c2ccccc2)C[C@H]2O[C@]1(C)n1c3ccccc3c3c4c(c5c6ccccc6n2c5c31)C(=O)NC4 [Midostaurin] (partner dose 0.4 µM) gave a cell count of 86.6%.

As for `Cn1sc(=O)n(Cc2ccccc2)c1=O` + C[C@]1(O)C[C@@H](c2nc(-c3ccc4ccc(-c5ccccc5)nc4c3)c3c(N)nccn32)C1 [OSI906] (partner dose 2 µM), the cell count was 68.2%.

`Cn1sc(=O)n(Cc2ccccc2)c1=O` + C#Cc1cccc(Nc2ncnc3cc(OCCOC)c(OCCOC)cc23)c1 [erlotinib] (partner dose 4 µM) yielded a cell count of 101%.

Take `C[C@@H](N)c1ccc(C(=O)Nc2ccnc3[nH]ccc23)cc1` + NC(=O)Nc1cc(-c2cccc(F)c2)sc1C(=O)N[C@H]1CCCNC1 [AZD7762] (partner dose 0.1 µM): the cell count stood at 65.1%.

For the compound `Cn1sc(=O)n(Cc2ccccc2)c1=O` + Nc1cccc2c1CN(C1CCC(=O)NC1=O)C2=O [lenalidomide] (partner dose 5 µM), the cell count was 92.5%.

The compound `Cn1sc(=O)n(Cc2ccccc2)c1=O` + Cc1cc(N2CCOCC2)cc2[nH]c(-c3c(NC[C@@H](O)c4cccc(Cl)c4)cc[nH]c3=O)nc12 [BMS536924] (partner dose 1 µM) came in with a cell count of 106%.

Compound `C[C@@H](N)c1ccc(C(=O)Nc2ccnc3[nH]ccc23)cc1` + Cn1sc(=O)n(Cc2ccccc2)c1=O [TDZD-8] (partner dose 2 µM) displayed a cell count of 85.4%.

As to `CCCCCCCCCCCCCCCCCCOP(=O)([O-])OC1CC[N+](C)(C)CC1` [Perifosine] + C[C@@H](N)c1ccc(C(=O)Nc2ccnc3[nH]ccc23)cc1 [RKI983] (partner dose 2 µM), the cell count stood at 101%.

Consider `CCCCCCCCCCCCCCCCCCOP(=O)([O-])OC1CC[N+](C)(C)CC1` [Perifosine] + CCCS(=O)(=O)Nc1ccc(F)c(C(=O)c2c[nH]c3ncc(Cl)cc23)c1F [PLX4720] (partner dose 0.4 µM), for which the cell count worked out at 86.6%.

Compound `CCCCCCCCCCCCCCCCCCOP(=O)([O-])OC1CC[N+](C)(C)CC1` [Perifosine] + Nc1ncn([C@H]2C[C@H](O)[C@@H](CO)O2)c(=O)n1 [decitabine] (partner dose 0.5 µM) displayed a cell count of 87.1%.

For `Cn1sc(=O)n(Cc2ccccc2)c1=O` + CNC(=O)c1cc(Oc2ccc(NC(=O)Nc3ccc(Cl)c(C(F)(F)F)c3)cc2)ccn1 [sorafenib] (partner dose 2 µM), the cell count worked out at 103%.

The next assay relates to C32. Described as above. The note with it: library dose: standard library concentration; 72 h; first compound 2 µM.
`C[C@@H](N)c1ccc(C(=O)Nc2ccnc3[nH]ccc23)cc1` + CC(C)C[C@H](NC(=O)[C@H](Cc1ccccc1)NC(=O)c1cnccn1)B(O)O [Bortezomib] (partner dose 0.005 µM) showed a cell count of 30.1%.

On to `CCCCCCCCCCCCCCCCCCOP(=O)([O-])OC1CC[N+](C)(C)CC1` [Perifosine] + COc1cc2c(Oc3ccc4[nH]c(C)cc4c3F)ncnc2cc1OCCCN1CCCC1 [cediranib] (partner dose 2 µM), for which the cell count was 91.5%.

`Cn1sc(=O)n(Cc2ccccc2)c1=O` + COc1cc2c(Oc3ccc4[nH]c(C)cc4c3F)ncnc2cc1OCCCN1CCCC1 [cediranib] (partner dose 2 µM) registered a cell count of 109%.

In the case of `C[C@@H](N)c1ccc(C(=O)Nc2ccnc3[nH]ccc23)cc1` + Clc1ccc(Nc2nnc(Cc3ccncc3)c3ccccc23)cc1 [vatalanib] (partner dose 10 µM), the cell count stood at 63.6%.

Compound `CCCCCCCCCCCCCCCCCCOP(=O)([O-])OC1CC[N+](C)(C)CC1` [Perifosine] + CC(C)(C)c1cnc(CSc2cnc(NC(=O)C3CCNCC3)s2)o1 [SNS-032] (partner dose 0.05 µM) returned a cell count of 86.1%.

In turn, `CCCCCCCCCCCCCCCCCCOP(=O)([O-])OC1CC[N+](C)(C)CC1` [Perifosine] + CNC(=O)c1cc(Oc2ccc(NC(=O)Nc3ccc(Cl)c(C(F)(F)F)c3)cc2)ccn1 [sorafenib] (partner dose 2 µM) had a cell count of 116%.

As to `CCCCCCCCCCCCCCCCCCOP(=O)([O-])OC1CC[N+](C)(C)CC1` [Perifosine] + COc1cc(Nc2ncc(F)c(Nc3ccc4c(n3)NC(=O)C(C)(C)O4)n2)cc(OC)c1OC [Tamatinib] (partner dose 2 µM), the cell count came to 75.2%.

Take `C[C@@H](N)c1ccc(C(=O)Nc2ccnc3[nH]ccc23)cc1` + C[C@@H]1CCN(C(=O)CC#N)C[C@@H]1N(C)c1ncnc2[nH]ccc12 [CP690550] (partner dose 5 µM): the cell count came to 68.4%.

`C[C@@H](N)c1ccc(C(=O)Nc2ccnc3[nH]ccc23)cc1` + O=C(O)c1ccc2c(c1)nc(Nc1cccc(Cl)c1)c1ccncc12 [CX4945] (partner dose 2 µM): the cell count is 78.8%.

Regarding `CCCCCCCCCCCCCCCCCCOP(=O)([O-])OC1CC[N+](C)(C)CC1` [Perifosine] + CC(C)C[C@H](NC(=O)[C@H](Cc1ccccc1)NC(=O)c1cnccn1)B(O)O [Bortezomib] (partner dose 0.005 µM), the cell count is 27.7%.

Consider `Cn1sc(=O)n(Cc2ccccc2)c1=O` + CC(C)C[C@H](NC(=O)[C@H](Cc1ccccc1)NC(=O)c1cnccn1)B(O)O [Bortezomib] (partner dose 0.005 µM), for which the cell count was 40.1%.

The compound `CCCCCCCCCCCCCCCCCCOP(=O)([O-])OC1CC[N+](C)(C)CC1` [Perifosine] + O=C(/C=C/c1cccnc1)NCCCCC1CCN(C(=O)c2ccccc2)CC1 [FK866] (partner dose 0.05 µM) showed a cell count of 84.5%.

`Cn1sc(=O)n(Cc2ccccc2)c1=O` + Cc1nc(Nc2ncc(C(=O)Nc3c(C)cccc3Cl)s2)cc(N2CCN(CCO)CC2)n1 [dasatanib] (partner dose 0.02 µM) displayed a cell count of 83.1%.

Compound `Cn1sc(=O)n(Cc2ccccc2)c1=O` + Cc1ccc(NC(=O)c2cccc(N(C)C)c2)cc1NC(=O)c1ccc(O)cc1 [ZM336372] (partner dose 10 µM) came in with a cell count of 89.5%.

Consider `CCCCCCCCCCCCCCCCCCOP(=O)([O-])OC1CC[N+](C)(C)CC1` [Perifosine] + CC(=O)O[C@@]12CO[C@@H]1C[C@H](O)[C@@]1(C)C(=O)[C@H](O)C3=C(C)[C@@H](OC(=O)[C@H](O)[C@@H](NC(=O)OC(C)(C)C)c4ccccc4)C[C@@](O)([C@@H](OC(=O)c4ccccc4)[C@H]21)C3(C)C [Docetaxel] (partner dose 0.0005 µM), for which the cell count came out at 81.7%.

Regarding `Cn1sc(=O)n(Cc2ccccc2)c1=O` + O=C(CCCCCCC(=O)Nc1ccccc1)NO [vorinostat] (partner dose 0.4 µM), the cell count came to 88.7%.

`Cn1sc(=O)n(Cc2ccccc2)c1=O` + NC1(c2ccc(-c3nc4ccn5c(=O)[nH]nc5c4cc3-c3ccccc3)cc2)CCC1 [MK2206] (partner dose 2 µM): the cell count came to 95.1%.

As for `C[C@@H](N)c1ccc(C(=O)Nc2ccnc3[nH]ccc23)cc1` + C[C@]1(O)C[C@@H](c2nc(-c3ccc4ccc(-c5ccccc5)nc4c3)c3c(N)nccn32)C1 [OSI906] (partner dose 2 µM), the cell count is 60.1%.

Consider `C[C@@H](N)c1ccc(C(=O)Nc2ccnc3[nH]ccc23)cc1` + CN1CCN(c2ccc3nc(-c4c(N)c5c(F)cccc5[nH]c4=O)[nH]c3c2)CC1 [Dovitinib] (partner dose 0.5 µM), for which the cell count was 66.6%.

`C[C@@H](N)c1ccc(C(=O)Nc2ccnc3[nH]ccc23)cc1` + CS(=O)(=O)CCNCc1ccc(-c2ccc3ncnc(Nc4ccc(OCc5cccc(F)c5)c(Cl)c4)c3c2)o1 [lapatinib] (partner dose 4 µM) registered a cell count of 85.3%.

Regarding `C[C@@H](N)c1ccc(C(=O)Nc2ccnc3[nH]ccc23)cc1` + COc1cc2c(Oc3ccc4[nH]c(C)cc4c3F)ncnc2cc1OCCCN1CCCC1 [cediranib] (partner dose 2 µM), the cell count amounted to 70.7%.

The compound `CCCCCCCCCCCCCCCCCCOP(=O)([O-])OC1CC[N+](C)(C)CC1` [Perifosine] + C[C@@H]1CCN(C(=O)CC#N)C[C@@H]1N(C)c1ncnc2[nH]ccc12 [CP690550] (partner dose 5 µM) came in with a cell count of 102%.

In the case of `C[C@@H](N)c1ccc(C(=O)Nc2ccnc3[nH]ccc23)cc1` + C#Cc1cccc(Nc2ncnc3cc(OCCOC)c(OCCOC)cc23)c1 [erlotinib] (partner dose 4 µM), the cell count was 84.5%.

In turn, `CCCCCCCCCCCCCCCCCCOP(=O)([O-])OC1CC[N+](C)(C)CC1` [Perifosine] + CO[C@H]1C[C@@H]2CC[C@@H](C)[C@@](O)(O2)C(=O)C(=O)N2CCCC[C@H]2C(=O)O[C@H]([C@H](C)C[C@@H]2CC[C@@H](OCCO)[C@H](OC)C2)CC(=O)[C@H](C)/C=C(\C)[C@@H](O)[C@@H](OC)C(=O)[C@H](C)C[C@H](C)/C=C/C=C/C=C/1C [everolimus] (partner dose 0.1 µM) showed a cell count of 80.6%.
